# Reference: the supplement of paper PMC3334620
# In all, about 33,000 sequences were measured (“E-score (-0.5 to 0.5)”: median about -0.035, highest 2% from about 0.34 on). Some of the results follow.
# Target: T1, Mot3 (UniProt P54785)
# T1 sequence: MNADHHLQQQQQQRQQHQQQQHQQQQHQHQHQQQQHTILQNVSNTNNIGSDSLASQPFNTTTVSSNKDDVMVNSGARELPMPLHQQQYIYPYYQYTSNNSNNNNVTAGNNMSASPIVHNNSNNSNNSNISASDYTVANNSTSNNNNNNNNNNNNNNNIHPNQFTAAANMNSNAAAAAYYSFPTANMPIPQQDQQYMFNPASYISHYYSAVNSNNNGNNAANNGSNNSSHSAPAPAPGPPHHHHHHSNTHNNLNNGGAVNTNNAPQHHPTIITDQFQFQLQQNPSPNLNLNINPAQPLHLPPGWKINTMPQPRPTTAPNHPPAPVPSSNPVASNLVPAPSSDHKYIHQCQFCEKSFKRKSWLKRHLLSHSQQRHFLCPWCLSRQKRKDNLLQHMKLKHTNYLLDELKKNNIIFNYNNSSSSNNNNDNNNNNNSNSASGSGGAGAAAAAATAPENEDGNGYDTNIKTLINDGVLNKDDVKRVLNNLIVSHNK
# Assay: PBM E-score (8-mer binding enrichment) (E-score (-0.5 to 0.5)); higher = stronger / more preferred TF binding; most listed sequences are background and not binding sites
# Details: protein concentration: 200 nM; construct: GST-full length
# Summary of the method: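 Each ungapped eight-base word and its reverse complement, pooled, received an E-score from the Universal PBM Analysis Suite. Underlying scans, normalised with masliner, recorded fluorescent anti-GST bound to GST-tagged yeast transcription factors. These were applied at about 100-200 nM to universal all-10-mer Agilent arrays double-stranded by primer extension.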
row,Sequence,PBM E-score
1,CGATGCAC,-0.223
2,AGTCCAGG,-0.121
3,CTATCTAA,0.0476
4,CCCGGAGG,-0.26
5,CACTCTAG,-0.145
6,GATCACAC,0.0429
7,GCTGTCAC,-0.0479
8,CGGTTCCA,-0.355
9,AGGGTTTC,0.0136
10,CCTTATTC,-0.0101
11,ACAACGTA,0.182
12,ACACCGCC,-0.095
13,AGAACGGG,-0.0837
14,CTGAAAAA,0.0759
15,CTCGACTC,-0.06
16,ACCTACAA,0.277
17,GAAATTCC,-0.0993
18,ATGGTAAG,-0.094
19,CAAACATC,0.205
20,AAATAGTT,0.0934
21,AACGCGCC,0.106
22,TATCAGGA,0.103
23,ACAGGTAC,0.423
24,CCCATTGC,0.0234
25,GCGGACGC,-0.24

row,Sequence,PBM E-score
1,ACAGTTCA,0.025
2,CATTCTGA,-0.0972
3,GGATGGAC,-0.231
4,GTCTGTAA,0.149
5,GAACGATC,0.189
6,TCACTGGA,-0.0505
7,CTACCCGC,-0.194
8,CCTCCCGA,-0.181
9,CGCCTCCA,-0.0882
10,ATCACTGC,-0.141
11,GCGCTCAA,-0.193
12,CACCCTAA,0.0169
13,AAGGCCCA,-0.0452
14,AGATCGTG,0.114
15,CACGCATG,0.212
16,CCTGGTCA,-0.0659
17,AATCATCT,0.0152
18,ACCTAGTA,0.211
19,AAGATAAG,0.12
20,ACCTATCA,0.108
21,CACGGCGG,-0.0365
22,CTATACGA,0.0128
23,ATATGCTC,-0.11
24,ATACGCAT,0.18
25,TTCTGCAA,-0.0221

row,Sequence,PBM E-score
1,TCTGCCAA,-0.0634
2,GGCCTTAA,0.0792
3,AAGCAGGA,-0.0405
4,CCATATGG,-0.269
5,ATGTGACC,-0.0699
6,ATGAGAGA,-0.0279
7,CTGAGTCA,-0.0693
8,AACCAAGT,0.0917
9,AGACGATA,-0.12
10,AATGCGGA,-0.119
11,TACCGGTA,-0.021
12,GGGCTGTA,0.0198
13,AAGACTTA,0.0882
14,AACCGAAA,0.0854
15,AGTCTGCC,-0.276
16,AGACCTGC,-0.0529
17,CATACCGA,-0.00061
18,CCCCCAGC,-0.434
19,GGTCCCAA,-0.238
20,CGACTGGA,-0.37
21,ATCCACAC,-0.0909
22,TACTTCCA,0.0637
23,CGTCGGTC,-0.11
24,AAGTGTCG,0.0843
25,GATGATCA,-0.29

row,Sequence,PBM E-score
1,GCCATACA,-0.0474
2,ACTAATCG,-0.00748
3,CGCGCTAG,-0.0539
4,GAGCACGA,-0.122
5,ATAGGAGA,0.0332
6,GGCCGTAA,-0.234
7,AGCTAGAT,-0.0173
8,TAGGTTCA,0.123
9,CCCCTTGA,-0.113
10,GCAGACAC,-0.00428
11,ATCAAATG,0.074
12,CCGGAATA,-0.125
13,GTTAAGCA,0.0926
14,GTTAGCTA,-0.0892
15,CGGCATGC,-0.291
16,AGAATGCA,-0.0199
17,TGCCTACA,0.487
18,ACTAGGGG,-0.223
19,AATGTAAA,0.374
20,GTGGTTAA,0.105
21,GCGGGGAC,-0.0447
22,CGTCGTGC,0.118
23,AGGTATAA,0.0672
24,CCTTGAGA,0.0531
25,CTATGCGA,-0.042

row,Sequence,PBM E-score
1,CCAATCAA,-0.0159
2,AGGGTAAA,0.0616
3,ACATAGTA,0.27
4,AACTTAAT,0.113
5,AACATATG,0.27
6,GGCTAGCA,-0.146
7,CCCGTGCG,-0.0432
8,CATGACCA,0.208
9,ATAATCAT,0.162
10,ACCAGATC,-0.137
11,AGGGAACC,0.00909
12,CGATCCTA,-0.126
13,GAGCTCGC,-0.207
14,GAGTGTAA,0.249
15,ACAACGCG,0.191
16,AAGGCGGC,-0.066
17,AGGGCAAT,-0.151
18,AAGGAAAA,0.417
19,CCAGTATC,-0.235
20,ACTACGTC,-0.0369
21,GATCGTCC,-0.167
22,CTTGCCCC,-0.209
23,GAATGGGA,-0.216
24,ATATCTTC,-0.116
25,TTGTTAAA,0.256

row,Sequence,PBM E-score
1,CATAATCC,-0.0632
2,AGAACAGG,0.184
3,GCGCAGTA,-0.216
4,AAGCACCC,-0.152
5,CCGAATTA,-0.0877
6,CACGGTTC,0.133
7,ATGACGCC,0.0853
8,ACCTACCT,0.14
9,ATCGAACG,-0.069
10,AAATATGA,0.0681
11,CTGAGGAC,0.0105
12,GGTGTCGA,0.046
13,ACATCTGC,-0.0464
14,CTACTGCC,0.013
15,GCCCTTGA,-0.0731
16,CGGAAGAA,-0.00032
17,CAACCTCA,-0.0585
18,AAAAACTG,-0.0347
19,CGGCAGGA,-0.0555
20,GAGGCTAA,-0.134
21,ACGCTAGT,-0.15
22,CGGTGGCC,-0.169
23,CCCGCAAC,0.104
24,TAGATGAA,0.153
25,CAAATTGA,-0.0406

row,Sequence,PBM E-score
1,AAGCTGCA,-0.0471
2,AAGCCTCT,-0.147
3,AAGGTGAG,-0.2
4,TACGAACA,0.18
5,CAGAGCTC,-0.238
6,GCACCAAC,-0.128
7,GCGCGACA,-0.103
8,AGGCACAA,0.489
9,AGAGATCT,-0.247
10,GAACCGTC,-0.12
11,ACGGGCTC,-0.347
12,GAGTTACC,0.0914
13,ACGGTTCA,-0.235
14,AGACGCGG,-0.0745
15,GCCACTTA,-0.122
16,TACGACTA,-0.0995
17,ATCTATTG,0.0393
18,GGGAATGA,-0.229
19,GAGGTGCC,0.253
20,CAGCATAC,-0.0824
21,CCCCACTA,-0.278
22,AAGCTATT,-0.0669
23,ACGACGAG,-0.0188
24,CTGTTATA,0.277
25,CAACTTAG,0.098

row,Sequence,PBM E-score
1,AAACGGAG,0.0165
2,GATTGTAA,0.211
3,GACGGTCC,-0.305
4,ACAAGTTG,0.086
5,GATGTTCA,0.0345
6,CCTGCGTC,-0.0965
7,CAACGGGC,-0.00168
8,AACAAACA,0.259
9,AAATTTAG,0.043
10,GCCAACGA,-0.0889
11,CCGGAGCG,-0.146
12,AGCACGCA,-0.016
13,AAACCCCT,0.0363
14,ATTAGAAC,0.0827
15,ACATGAGA,0.309
16,TCTGTTAA,0.207
17,ATGGGCGC,-0.291
18,ACGGGTTG,-0.18
19,GGTAAGCA,-0.136
20,GCACACCC,-0.102
21,CCGAAGTC,-0.108
22,CTACGCCA,-0.0226
23,TCAGGGCA,0.111
24,TGCATCCA,-0.0735
25,ACTACGCT,0.0652

row,Sequence,PBM E-score
1,GCCGGCCC,-0.33
2,CAAGCTTA,-0.142
3,GACTGTCC,-0.143
4,GGGAAAAC,-0.195
5,TATGACAA,0.077
6,CAATCAGG,0.00489
7,CGGTTAGC,-0.145
8,ATTAAGTA,0.0749
9,CGTTAATA,0.195
10,GGGACAAC,-0.0492
11,ACCATTCG,-0.0746
12,CGTAAGTC,-0.0604
13,ATTGCAAA,0.0186
14,CAATACGA,0.0195
15,ACGGTCTG,-0.0141
16,GTGCCCAA,0.392
17,GAGTATAC,0.0757
18,CTTTAAAA,0.118
19,AATCTGAG,-0.0256
